The text below walks through data of patent US7741244B2, “Fungicide compositions” (priority 2002, dated 2010).

Assay [1] deals with Botrytis cinerea (primary), Rhizopus (secondary). In words: Inhibition of fungus infection on strawberries, dip (Example 4). It counts as in vivo. The text has this: (§1) Strawberries were harvested from the four separated areas.
For assay [2] the test system is unchanged. The experiment in a line: Inhibition of fungus infection on strawberries, dip (Example 5). Particulars: 60 s dip.
From the text: as §1

`O=C(O)CO` [glycolic acid]: in assay [1] (only glycolic acid used), the “inhibition of fungal infection of strawberries (in words)” value is “No inhibition”. Besides, the “Infected berries (% of total) Day 3” value turned out to be 75% in assay [1] (strawberries (Northeaster), 60 s dip, day 3 after treatment) and 95% in assay [2] (day 3 after treatment). Moreover, the “Infected berries (% of total) Day 4” value in assay [1] (strawberries (Northeaster), 60 s dip, day 4 after treatment) is 90%; in assay [2] (day 4 after treatment), 100%. In assay [1] (strawberries (Northeaster), 60 s dip, day 5 after treatment), the “Infected berries (% of total) Day 5” value was 100%. Also, in assay [1] (strawberries (Northeaster), 60 s dip, day 6 after treatment), the “Infected berries (% of total) Day 6” value came to 100%. Besides, the “Infected berries (% of total) Day 7” value in assay [1] (strawberries (Northeaster), 60 s dip, day 7 after treatment) was determined as 100%. In addition, in assay [2] (day 2 after treatment), the “Infected berries (% of total) Day 2” value is reported as 70%.
